# Measurements: the supplement of paper PMC3334620
# Whole data set: some 33,000 sequences, median “E-score (-0.5 to 0.5)” near -0.017, cut for the highest 2% near 0.3. The list shows a part of the results.
# Target: T1, Sut1 (UniProt P53032)
# T1 sequence: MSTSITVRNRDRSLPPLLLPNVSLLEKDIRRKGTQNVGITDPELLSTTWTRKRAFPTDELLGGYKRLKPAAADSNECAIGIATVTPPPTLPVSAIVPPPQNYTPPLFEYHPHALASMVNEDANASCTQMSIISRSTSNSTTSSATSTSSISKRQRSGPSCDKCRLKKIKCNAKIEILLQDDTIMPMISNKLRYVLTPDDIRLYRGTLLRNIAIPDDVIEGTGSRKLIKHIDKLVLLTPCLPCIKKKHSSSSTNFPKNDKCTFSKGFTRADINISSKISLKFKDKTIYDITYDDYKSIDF
# Assay: PBM E-score (8-mer binding enrichment) (E-score (-0.5 to 0.5)); higher = stronger / more preferred TF binding; most listed sequences are background and not binding sites
# Conditions: protein concentration: 200 nM; construct: GST-full length
# Outline: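 Masliner-normalised scans of fluorescent anti-GST signal were the basis for scoring. That signal came from GST-tagged yeast transcription factors applied at about 100-200 nM to double-stranded universal all-10-mer Agilent arrays on fresh or once-stripped slides. Each ungapped eight-base word, pooled with its reverse complement, received an E-score from the Universal PBM Analysis Suite.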
row,Sequence,PBM E-score
1,CTCTTTAC,0.119
2,ACTTGACA,-0.148
3,CGACGTTA,0.113
4,ACTACGGC,0.033
5,TCACTTAA,0.181
6,AAGCCCCT,-0.23
7,ATATTGAC,0.147
8,GTAATACA,0.13
9,ACCATTAG,0.194
10,GTTGTCAA,-0.0747
11,GCACATGA,-0.24
12,CCCGGTCA,-0.0703
13,GCTATTAA,0.155
14,GGAATACC,-0.0435
15,AGAAAACC,0.0677
16,ATTCTGTC,0.0251
17,ACATAGCT,-0.148
18,GTCTCTGA,0.0486
19,AATGTCAC,-0.0184
20,CGCTTTAA,-0.0751
21,TACATCTA,0.163
22,ACGTCCGC,-0.121

row,Sequence,PBM E-score
1,ACTCGAAA,0.0594
2,GAGAGACC,-0.172
3,ACAACCGT,-0.19
4,TTGACCAA,-0.0982
5,ACAACCTA,0.0115
6,ACATGGCC,-0.125
7,ATAAACTA,0.192
8,CGTAACAA,0.164
9,ACGAGTCG,-0.0772
10,CGAAGGAG,-0.0692
11,CCTGAGGC,-0.213
12,CCAGCCCA,-0.293
13,CAAACGAC,0.0628
14,AGGGCGAA,-0.139
15,AAAGCGTG,-0.131
16,TGTCGGAA,0.218
17,GATCGCCA,-0.111
18,GACCGGAA,0.179
19,CATCCATG,-0.207
20,CCGAACGA,0.225
21,GGGAAACA,-0.0511
22,AATGTATG,0.105

row,Sequence,PBM E-score
1,ATTTTTTA,0.233
2,AGCCCGCG,0.0167
3,TACTAAAA,0.207
4,TCCTCACA,0.00158
5,ACGGAGAG,0.247
6,ACCCGTCT,-0.182
7,AAATGTCA,0.0281
8,GAGAGTGA,0.0154
9,CGGAATAC,0.325
10,CATCCTAG,-0.12
11,AGGAAGAG,-0.16
12,AGGTCTCA,-0.038
13,ATCGTACA,0.168
14,ACACTCTA,0.0904
15,ACTAGTAG,0.0189
16,AGAACGAT,0.0176
17,CTTCGACA,-0.0366
18,ATGCGCAC,-0.146
19,GACACCTC,-0.182
20,CACTCTTA,-0.0438
21,CTTGAAAC,0.121
22,ACTCCAGA,0.0869

row,Sequence,PBM E-score
1,GCCCGGGC,-0.0214
2,GCGTGTCA,0.0977
3,CCCGCAAG,-0.313
4,ACACCGCA,0.0401
5,AATTTTTA,0.229
6,AACACCCG,0.0517
7,AATTAGGA,0.137
8,AAGAAGGA,0.0609
9,TGAGTGCA,-0.0681
10,GAGTCAAC,-0.0526
11,AAGGATAT,0.123
12,ATTAAGGG,-0.0806
13,CGTTTTTC,0.161
14,CCGCAGAC,0.0291
15,GACACCGC,-0.0517
16,ACAGAGGC,-0.292
17,ATAAGTAC,0.166
18,CCAAGGCG,-0.0929
19,GGAAGTGA,-0.0229
20,AGATTGAG,0.0927
21,AAGATGAC,-0.052
22,CAATCACC,-0.0889

row,Sequence,PBM E-score
1,CAAAACGC,0.11
2,CGCGCGCC,0.00566
3,ACTAAATC,0.199
4,CACACGGC,-0.0702
5,AAAGATGA,0.0367
6,CAGTATAG,0.0135
7,AATGAACT,0.11
8,TCATCCAA,0.154
9,GCAATTGA,0.104
10,CTGTTAGC,-0.031
11,GCGGGAGA,-0.204
12,AACGGGGA,0.0281
13,GCCAAGGA,-0.174
14,CGCTTTAC,-0.00074
15,CGTGTTTA,0.187
16,CGCGGACA,0.237
17,GCCTGCGA,-0.217
18,AATTTAAA,0.286
19,AGGTAATG,-0.0464
20,GCTTGGAA,-0.102
21,CCTGGCCG,-0.0954
